# Measured values from the supplement of paper PMC12217912.
# This is one part of the list. The full chains were built here from the parent and the listed change. Values near 0.05 are background.
# B1: TEV protease; numbered along this chain (parent)
# chain: MGESLFKGPRDYNPISSSICHLTNESDGHTTSLYGIGFGPFIITNKHLFRRNNGTLVVQSLHGVFKVKDTTTLQQHLVDGRDMIIIRMPKDFPPFPQKLKFREPQREERICLVTTNFQTKSMSSMVSDTSCTFPSGDGIFWKHWIQTKDGQCGSPLVSTRDGFIVGIHSASNFTNTNNYFTSVPKNFMELLTNQEAQQWVSGWRLNADSVLWGGHKVFMVKPEEPFQPVKEATQL
# Variants of: B1
# Test: raw area under fraction-flipped curve 0-4 h after induction (AUC4h, not background-subtracted), DNA-recorder readout of cleavage of the substrate (dimensionless); higher = more cleavage of the substrate by the protease variant
# Conditions: temperature: 34 °C; time window: 0-4 h after rhamnose induction
# Description: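 In vivo DNA recorder in E. coli TOP10(DE3) ΔrhaA at 34 °C. Each TEVp single-site mutant (parent TEVp 0) is paired with a single-site variant of the 7-mer TEVs (canonical ENLYFQ|S). The substrate sits between flexible linkers in a Bxb1-sfGFP-TEVs-SsrA fusion, so cleavage stabilises Bxb1 and speeds flipping of a recombination array, read by NGS. The value is the raw area under the fraction-flipped curve over 0-4 h after rhamnose induction (AUC4h), with ≥20 reads per time point. It is not background-subtracted; inactive controls average about 0.047.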
# 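Also: Bxb1 expression induced with 0.2% (w/v) L-rhamnose at OD600 near 0.5, cultures sampled hourly, flipped fraction per protease–substrate barcode pair counted by paired-end Illumina sequencing.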
Variant,area with substrate ANLYFQS,area with substrate DNLYFQS,area with substrate FNLYFQS,area with substrate HNLYFQS,area with substrate INLYFQS,area with substrate KNLYFQS,area with substrate LNLYFQS,area with substrate NNLYFQS,area with substrate PNLYFQS,area with substrate TNLYFQS,area with substrate VNLYFQS,area with substrate WNLYFQS,area with substrate YNLYFQS,area with substrate GNLYFQS,area with substrate CNLYFQS,area with substrate MNLYFQS,area with substrate SNLYFQS,area with substrate RNLYFQS,area with substrate QNLYFQS
I139Y,0.0754,0.0686,0.0793,0.0688,0.06,0.0698,0.0595,0.0668,0.0655,0.0555,0.0442,0.063,0.0368,,,,,,
I139F,0.056,0.0708,,0.067,,0.0461,0.0616,,0.0675,,,0.0589,0.0598,0.0687,,,,,
I139M,0.0837,,0.0385,0.0716,0.0566,0.0727,0.0597,0.0688,0.0738,0.0468,0.0537,0.0544,0.069,,0.0802,0.0667,0.0933,,
T132R,0.0594,,,,0.0619,,0.0548,0.0606,0.0562,0.0662,,0.0454,,,0.0532,,,,
T159L,0.0639,,0.0635,0.115,0.0525,,0.0705,0.0704,,,,0.0648,0.0452,0.0854,0.0764,0.0507,0.0469,0.0649,
K142M,0.0961,,0.0623,0.0692,0.08,,,0.0701,,0.0529,0.0722,,0.0676,,0.0687,0.0829,,,0.113
K142H,0.0753,,0.0619,0.0706,0.07,0.0722,0.0649,0.0665,0.0704,,0.0755,0.0618,0.0689,0.0723,0.0767,0.0685,0.0729,0.0709,0.0621
R160H,0.0766,,0.059,,,0.0586,0.0983,,0.0685,,0.0748,,,0.0716,,0.0445,0.0648,,
S154G,0.0668,,0.0571,0.0657,,,,,0.0698,0.0559,0.0443,0.0579,,0.0545,0.0583,0.058,,,
S154P,0.0543,,0.0546,,0.0398,0.0772,0.0602,0.057,,0.0634,,0.0629,0.0641,,0.0638,,0.0608,,
H143L,0.0612,,,0.0865,0.0524,,0.0568,0.0607,0.0578,,,0.055,0.0673,,0.0686,,,,0.112
H143W,0.0661,,0.0597,0.0124,0.0451,0.0695,,,0.0614,0.0635,,0.0548,0.0538,,0.0542,0.043,0.0593,0.0562,0.049
H143K,0.038,,,0.0582,0.0328,,0.0668,,,0.0613,,0.0555,0.051,,0.0612,0.0459,0.0578,0.0505,0.0608
I145Y,0.0621,,0.0714,0.063,0.0556,,,0.0449,0.0556,0.0621,0.0626,0.0647,0.0658,0.067,0.0585,0.0758,0.0732,0.0653,0.0682
